About 14,000 (4.5%) of roughly 310,000 compounds showed an effect of 50% or more. The effect is printed as a negative number. The list shows a part of the results.
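Further: peak tail current of the secondary pulse compared with the same well before compound.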

In the assay the target is human ether-à-go-go-related gene (hERG) potassium channel (human, UniProt Q12809). Briefly: primary screen, population patch clamp on CHO cells stably expressing hERG.
Sequence of human ether-à-go-go-related gene (hERG) potassium channel (Q12809 whole entry, looked up): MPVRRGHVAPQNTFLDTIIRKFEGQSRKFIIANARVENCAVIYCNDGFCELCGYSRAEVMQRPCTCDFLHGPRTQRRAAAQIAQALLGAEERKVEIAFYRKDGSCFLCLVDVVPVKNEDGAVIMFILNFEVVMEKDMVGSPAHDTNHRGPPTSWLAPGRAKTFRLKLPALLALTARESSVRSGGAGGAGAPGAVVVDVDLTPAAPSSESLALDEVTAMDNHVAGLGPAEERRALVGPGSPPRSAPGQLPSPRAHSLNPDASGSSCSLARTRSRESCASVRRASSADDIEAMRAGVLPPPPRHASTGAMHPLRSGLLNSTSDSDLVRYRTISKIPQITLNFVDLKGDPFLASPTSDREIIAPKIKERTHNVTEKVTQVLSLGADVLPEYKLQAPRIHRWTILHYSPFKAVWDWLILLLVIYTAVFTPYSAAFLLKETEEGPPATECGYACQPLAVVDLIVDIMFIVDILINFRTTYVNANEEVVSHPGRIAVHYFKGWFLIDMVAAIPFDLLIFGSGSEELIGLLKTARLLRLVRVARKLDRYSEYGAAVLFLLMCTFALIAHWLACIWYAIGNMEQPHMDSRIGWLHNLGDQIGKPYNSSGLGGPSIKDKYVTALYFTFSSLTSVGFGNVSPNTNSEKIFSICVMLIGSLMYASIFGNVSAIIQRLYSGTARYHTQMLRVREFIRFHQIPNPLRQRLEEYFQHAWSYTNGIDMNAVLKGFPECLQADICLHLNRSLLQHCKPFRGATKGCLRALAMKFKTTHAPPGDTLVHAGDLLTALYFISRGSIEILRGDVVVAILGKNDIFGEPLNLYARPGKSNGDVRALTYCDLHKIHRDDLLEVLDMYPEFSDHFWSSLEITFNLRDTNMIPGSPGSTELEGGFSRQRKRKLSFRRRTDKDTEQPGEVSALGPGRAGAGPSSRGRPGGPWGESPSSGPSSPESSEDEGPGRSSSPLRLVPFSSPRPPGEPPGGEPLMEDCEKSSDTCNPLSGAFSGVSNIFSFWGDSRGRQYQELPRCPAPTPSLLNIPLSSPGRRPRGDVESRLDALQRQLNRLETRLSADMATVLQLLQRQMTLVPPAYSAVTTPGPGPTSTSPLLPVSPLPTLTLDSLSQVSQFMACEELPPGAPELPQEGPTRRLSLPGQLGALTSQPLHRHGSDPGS
Consider `O=C(NNS(=O)(=O)c1ccccc1[N+](=O)[O-])c1cccnc1`, for which the “hERG current change (%, negative = inhibition) at 10uM” value is on record as -2.96%. In the case of `O=C(Nc1ccccn1)C(NS(=O)(=O)c1cccc2nsnc12)c1ccccc1` (centres unmarked), the “hERG current change (%, negative = inhibition) at 10uM” value is -4.67%. The value for `CC1(C)CC(=O)C(C=NC(CCC(N)=O)C(=O)O)=C(O)C1` (centres unmarked) was 0.668%. The value for `Cc1cc(N/N=C/c2ccc(O)c(C)c2O)nc(-c2ccccc2O)n1` was 5.29%.

On to `CSC1=N/C(=C\c2ccccc2)C(=O)N1C`, for which the “hERG current change (%, negative = inhibition) at 10uM” value is listed as -12.7%.

Turning to `O=C(Nc1nnc(-c2ccccn2)o1)c1cccc(Cl)c1`, the “hERG current change (%, negative = inhibition) at 10uM” value was -0.458%.

Consider `COc1ccc(C)cc1NC(=O)NNC(=O)C1CCC(C(C)(C)C)CC1` (centres unmarked), for which the “hERG current change (%, negative = inhibition) at 10uM” value is 11.8%.

In the case of `CS(=O)(=O)c1ccc(Cl)c(NC(=O)CN2CCCC2c2ccc3c(c2)OCCCO3)c1` (centres unmarked), the “hERG current change (%, negative = inhibition) at 10uM” value was -37.1%. Consider `COc1ccc(CC(NC(C)=O)C(=O)NC2CCN(C(=O)c3ccc([N+](=O)[O-])cc3)CC2)cc1OC` (centres unmarked), for which the “hERG current change (%, negative = inhibition) at 10uM” value is 4.93%. The value for `CN(C)S(=O)(=O)c1cc(NC(=O)CN2C(=O)NC3(CCCc4ccccc43)C2=O)ccc1Cl` (centres unmarked) was -6%. Regarding `Cc1ccc(NS(=O)(=O)c2cccc(C(=O)N3CCCCCC3)c2)cc1`, the “hERG current change (%, negative = inhibition) at 10uM” value was -8.85%. The value for `O=C(O)Cn1c(SCCOc2ccc(Cl)cc2)nc2ccccc21` was 20.8%; that for `Cc1n[nH]c(C)c1Cc1c(F)cccc1Cl` was -1.32%. The value for `COc1cc(-c2cc3nc(C)c(C)c(=O)n3[nH]2)cc(OC)c1OC` was -34%; that for `CC1CCCC(NC(=O)c2ccncc2)C1C` (centres unmarked) was 14.8%.

As to `CC12CCC(c3c1nc1ccccc1[n+]3[O-])C2(C)C` (centres unmarked), the “hERG current change (%, negative = inhibition) at 10uM” value was -3.25%. In the case of `CCN(CC)S(=O)(=O)c1cccc(C(=O)Nc2ccc(C#N)cc2)c1`, the “hERG current change (%, negative = inhibition) at 10uM” value was -77.3%.

As for `CC(C)c1ccccc1OCC(=O)NCC(c1cccs1)N1CCOCC1` (centres unmarked), the “hERG current change (%, negative = inhibition) at 10uM” value is reported as -50.2%.

As for `COC(=O)CN1C(=O)[C@H]2[C@@H](c3ccc(C)o3)N3C(=O)CN(CC4CC4)C(=O)[C@@]3(Cc3ccccc3)[C@H]2C1=O`, the “hERG current change (%, negative = inhibition) at 10uM” value was -18.5%.

Turning to `CCOc1cccc(C(=O)Nc2ccc3oc(-c4cccnc4)nc3c2)c1`, the “hERG current change (%, negative = inhibition) at 10uM” value is reported as -9.4%.

As to `Cc1ccc2cc(CCl)c(Cl)nc2c1`, the “hERG current change (%, negative = inhibition) at 10uM” value worked out at 3.34%.

As for `CCOc1ccc2oc(-c3ccccc3)c(C(N)=O)c2c1`, the “hERG current change (%, negative = inhibition) at 10uM” value was 26.4%. The value for `COc1ccc(OC)c(-c2csc(NC(=O)CSCC(=O)Nc3cc(C)on3)n2)c1` was 15%; that for `CCn1c(SCc2c(Cl)cccc2Cl)nc2nc3c(cc2c1=O)CCCC3` was -9.6%; that for `Cc1ccc(S(=O)(=O)N(C)c2ccc(OC(=O)c3ccc(N4CCCC4=O)cc3)cc2)cc1` was 14.7%.

As for `CCN1CCN(Cc2cc3c(cc2[N+](=O)[O-])OCO3)CC1`, the “hERG current change (%, negative = inhibition) at 10uM” value amounted to 7.4%.

Consider `O=c1[nH]c(Cn2nnc(-c3ccccc3)n2)nc2scc(-c3ccccc3)c12`, for which the “hERG current change (%, negative = inhibition) at 10uM” value stood at 6.27%.

Take `CN1C(=O)C(=Cc2cn(CC#N)c3ccccc23)C(=O)N(C)C1=O`: the “hERG current change (%, negative = inhibition) at 10uM” value is reported as 19.8%. For `Cc1ccn2cc(CCNC(=O)C3CCCCC3)nc2c1`, the “hERG current change (%, negative = inhibition) at 10uM” value is -23.5%. The value for `CCOC(=O)CC(=O)c1cc(OC)c(OC)c(OC)c1` was -3.44%; that for `O=C(CCS(=O)(=O)c1cccc2nonc12)Nc1ccc(Br)cc1` was 7.91%; that for `FC(F)(F)c1cc(-c2cccs2)nc2cc(-c3cccs3)nn12` was 14.5%. The value for `CCOC(=O)c1sc(NC(=O)c2ccc(=O)[nH]c2)nc1C` was 9.75%; that for `CCN(c1ccccc1)S(=O)(=O)c1ccc(Cl)c(NC(=O)COC(=O)c2ccc(O)cc2)c1` was 6.44%. The value for `COc1ccc(-c2c(-c3ccc(OC)c(C)c3O)n[nH]c2C)cc1` was 21.1%; that for `O=C1CSC(c2cccnc2)N1C1CCCCC1` (centres unmarked) was 8.35%; that for `CCN(CC)Cc1nc2c(c(=O)[nH]1)C(CC)(CC)Cc1ccccc1-2` was -6.25%. Turning to `COc1ccccc1-c1c(C)oc2cc(OC(=O)c3ccco3)ccc2c1=O`, the “hERG current change (%, negative = inhibition) at 10uM” value is -0.156%. The value for `CCOC(=O)c1ccc(N=c2sc(C(=O)OC)cc(=O)n2Cc2ccco2)cc1` was 13.7%. As to `O=C(COc1cccc2ccccc12)NNC(=O)C1CCCO1` (centres unmarked), the “hERG current change (%, negative = inhibition) at 10uM” value was -0.0512%. The value for `CCOC(=O)c1cnc2ccc(OCC)cc2c1N1CCN(C)CC1.Cl` was -47.8%. The value for `O=C(c1cc(COc2ccc(F)cc2Cl)on1)N1CCSCC1` was -4.58%; that for `Cc1ccc(C)c(N2CCN(S(=O)(=O)c3c(C)noc3C)CC2)c1` was 4.42%; that for `Cc1csc(-c2cnn(-c3ccccc3)c2NC(=O)c2cccc(C(F)(F)F)c2)n1` was 9.98%.

These data come from PMC4336329 (PLoS ONE, 2015).
